Assay results: PubChem BioAssay AID624417 (National Center for Advancing Translational Sciences (NCATS), 2012)
The campaign covered roughly 410,000 compounds. About 6,400 (1.6%) were called active. The inconclusive results got no clear call from the source; some entries with a clear call stand among them for comparison. Calls come from the whole dose curve; as a rule, active = well fitted inhibition curve with a large enough effect; inconclusive = small, poorly fitted or top-dose-only effect; inactive = no such curve, though single readings can be large or run the other way. Potencies of inconclusive entries are left out as doubtful fits.

molecular target: Glucagon-like peptide 1 receptor (Homo sapiens) (UniProt P43220); assay: qHTS of GLP-1 Receptor Inverse Agonists (Inhibition Mode); details: HEK293 GLP-1R CRE-luciferase, luminescence, 24 h, GLP-1R form is constitutively active; series mostly up to 38.3 µM; note: nearly all actives have a fitted effect of over 55% in size
Summary of the method: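 Readout was luciferase luminescence, measured 12 min after detection reagent at room temperature. Beforehand, GLP-1R reporter HEK293 cells had sat 12 h, then received compounds for 24 hr at 37 deg C.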
Potency is the fitted concentration of half-maximal effect; tags give direction and shape of the fitted curve.

Chain of UniProt P43220 (P43220 whole entry, looked up): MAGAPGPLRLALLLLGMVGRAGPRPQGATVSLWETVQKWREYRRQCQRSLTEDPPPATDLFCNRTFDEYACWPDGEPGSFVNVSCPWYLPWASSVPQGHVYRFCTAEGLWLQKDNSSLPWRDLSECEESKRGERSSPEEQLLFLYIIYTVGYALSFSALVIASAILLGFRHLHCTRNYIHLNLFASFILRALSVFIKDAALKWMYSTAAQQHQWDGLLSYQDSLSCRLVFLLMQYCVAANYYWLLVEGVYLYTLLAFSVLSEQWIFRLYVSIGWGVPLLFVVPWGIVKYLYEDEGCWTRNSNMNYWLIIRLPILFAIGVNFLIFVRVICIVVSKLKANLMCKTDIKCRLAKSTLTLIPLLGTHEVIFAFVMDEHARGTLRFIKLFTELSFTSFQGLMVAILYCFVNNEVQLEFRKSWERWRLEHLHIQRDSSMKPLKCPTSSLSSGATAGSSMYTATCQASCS

SMILES	Potency
O=C(Cc1ccc([N+](=O)[O-])cc1)Nc1cccc(C(F)(F)F)c1	inconclusive [inhibitor, partial curve, poor fit]
CCOC(=O)C(C)Oc1ccc2c(CC)cc(=O)oc2c1C (stereo not given)	inactive
O=C(Nc1ccc(Cl)c(Cl)c1)N1N=CCC1c1ccccc1 (stereo not given)	inconclusive [inhibitor, partial curve, poor fit]
COc1cc2cc(C(=O)N3CCOCC3)cc(-c3ccc(C)cc3)c2cc1OC	inactive
COC(=O)C(CC(=O)c1ccc(Cl)cc1)c1ccccc1 (stereo not given)	inconclusive [inhibitor, single point]
CCc1nc2ccc(C(=O)NC3CCN(C)CC3)cn2c1N(C)CCC(C)C	inconclusive [inhibitor, single point]
CC(=O)O[C@H](COc1c2ccoc2cc2oc(=O)ccc12)C(C)(C)O	inactive
CSCC[C@H](NC(=O)OC(C)(C)C)c1nnc(SCC(=O)Nc2ccc(C)cc2C)o1	inconclusive [inhibitor, single point]
O=C(c1ccc(N2CCCC2)c([N+](=O)[O-])c1)N1CCc2ccccc2C1	active: 4.47 µM
CCc1[nH]nc(C(=O)NC2CCCN(Cc3ccccc3F)C2)c1C (stereo not given)	inconclusive [inhibitor, partial curve, poor fit]
CCc1ccccc1NC(=O)CN(c1ccc(OC)cc1OC)S(=O)(=O)c1ccccc1[N+](=O)[O-]	inconclusive [inhibitor, partial curve, poor fit]
O=C(O)c1cccc(Cn2c(Cl)c(/C=N/Nc3ccccc3)sc2=O)c1	inconclusive [inhibitor, full curve, poor fit]
COC(=O)c1ccc(OCC(O)CN(CC(C)C)CC(C)C)cc1 (stereo not given)	inconclusive [inhibitor, partial curve, poor fit]
CCCCNCc1nc2ccccc2c(=O)[nH]1	inconclusive [inhibitor, single point]
COc1cccc(CNC(=S)NC2CCCC2)c1	inactive
COc1ccccc1-c1nc(S(=O)(=O)c2ccc(Cl)cc2)c(N2CCCCCC2)o1	inconclusive [inhibitor, single point]
COc1ccc(-c2nc3n(n2)C(=O)CC(c2ccco2)S3)cc1 (stereo not given)	inactive
COc1ccc2oc(=O)cc(CN(C)Cc3ccccc3)c2c1	inconclusive [inhibitor, partial curve, poor fit]
CCOc1ccc(CNC(=O)C2CCCN(c3nc4c(C)cc(C)cc4s3)C2)cc1 (stereo not given)	inactive
CCN1CCN(c2cc(C)c3cc(NC(=S)NCc4cccs4)ccc3n2)CC1	inconclusive [inhibitor, full curve, poor fit]
O=C(Nc1ccncc1)c1ccccc1[N+](=O)[O-]	inconclusive [inhibitor, single point]
CCOc1ccccc1Nc1nc2ccccc2[nH]1	inconclusive [inhibitor, partial curve]

SMILES	Potency
Cc1ccccc1C(=O)c1cccn1CC(=O)NC(C)CCc1ccccc1 (stereo not given)	inconclusive [inhibitor, partial curve, poor fit]
Cc1ccc(C2CN(c3ccccc3)CC2C(=O)c2ccc(F)cc2)cc1 (stereo not given)	active: 10 µM
Cc1c(C(=S)Nc2ccccc2)cnn1-c1ccccc1	inconclusive [inhibitor, single point]
CN(Cc1ccc(Cl)cc1)C(C(=O)NC1CCCCC1)c1ccnc2ccccc12 (stereo not given)	inconclusive [inhibitor, partial curve]
COc1ccccc1C(=O)Nc1ccc2c(c1)nc1n2CCN(Cc2ccccc2)C1	inconclusive [inhibitor, single point]
O=C(Nc1ccc2nc3n(c(=O)c2c1)CCCC3)c1cccc([N+](=O)[O-])c1	inactive
Cc1ccccc1-c1nn(-c2ccc(F)cc2F)cc1CNCCCO	inconclusive [inhibitor, single point]
Cc1cccc(NCC(=O)N/N=C\c2cccc(Oc3ccccc3)c2)c1	inconclusive [inhibitor, full curve, poor fit]
CCc1cccc(NC(=O)c2cc(S(=O)(=O)N3CCCCC3)ccc2N2CCOCC2)c1	inconclusive [inhibitor, single point]
CCc1ccc(-c2cc(C)no2)cc1S(=O)(=O)N1CCN(c2ccccc2)CC1	inconclusive [inhibitor, partial curve, poor fit]
CCC(=O)NC(c1ccccc1OC)c1ccc2cccnc2c1O (stereo not given)	inconclusive [inhibitor, partial curve, poor fit]
N#Cc1ccccc1Sc1ccccc1C(=O)Nc1ccc(Br)cc1	inconclusive [inhibitor, partial curve, poor fit]
OCC1(CC2CCCCO2)CCN(Cc2ccccc2-c2ccco2)CC1 (stereo not given)	inconclusive [inhibitor, single point]
CCc1nc(SCC(=O)OC(C)C)c2ccccc2n1	inconclusive [inhibitor, single point]
O=C(COC(=O)Cc1c(Cl)cccc1Cl)Nc1ccccc1-c1ccccc1	inconclusive [inhibitor, partial curve]
CCCc1noc2c1/C(=N\O)CC(CC(C)SCC)C2 (stereo not given)	inconclusive [inhibitor, partial curve]
COc1cc(C(F)(F)F)c(C(=O)N(C)Cc2cc(Cl)cc(Cl)c2)cn1	inconclusive [inhibitor, single point]
CC(=O)Nc1cccc(-c2ccnc3c2CC(C)(C(=O)NCc2cccc(Cl)c2)O3)c1 (stereo not given)	inconclusive [inhibitor, single point]
CC(C)(C)C1CCC(=NNC(=S)NCc2ccccc2)CC1 (stereo not given)	inconclusive [inhibitor, single point]
COc1cc2c(cc1OC)-c1cc(NCc3ccccn3)nc(=O)n1CC2	inactive
CC(C)(C)NC(=O)NC(=O)COC(=O)C1c2ccccc2Oc2ccccc21	inconclusive [inhibitor, full curve, poor fit]
CC1=Nc2ccccc2N=C(NC(=O)CSc2nnnn2-c2ccccc2)C1c1ccccc1 (stereo not given)	inconclusive [inhibitor, partial curve, poor fit]

SMILES	Potency
CC(=O)NCCC(=O)N1CCc2c([nH]c3ccccc23)C1c1cccc(C)c1 (stereo not given)	inconclusive [inhibitor, partial curve, poor fit]
O=C(CN1C(=O)COc2ccc(S(=O)(=O)N3CCCCC3)cc21)NCc1ccc(F)cc1	inconclusive [inhibitor, single point]
CCCOc1ccc(C(=O)Nc2cccc(-c3nc4ccccc4[nH]3)c2)cc1	inconclusive [inhibitor, single point]
Cc1ccc(N2C(S)=C(C#N)C(=O)NC2c2cccs2)cc1 (stereo not given)	inactive
COc1ccc(Cl)cc1NC(=O)CN1C(=O)NC(C)(Cc2ccc(OC)c(OC)c2)C1=O (stereo not given)	inconclusive [inhibitor, single point]
CCc1nc2n[nH]c(N)c2c2c1CSC(C)(C)C2	inactive
O=C(NCCc1ccccc1)c1nc(CS(=O)(=O)c2ccc(Cl)cc2)no1	inconclusive [inhibitor, partial curve, poor fit]
Cc1cccc(C)c1OCC(=O)NCC1(N2CCOCC2)CCCCC1	inconclusive [inhibitor, single point]
O=C(N/N=C\c1cccc(F)c1)c1ccc(Cn2cc(Br)c([N+](=O)[O-])n2)o1	inactive
Cn1c(Oc2ccc3c(c2)OCO3)nc2c1c(=O)n(Cc1ccccc1)c(=O)n2C	inactive
CS(=O)(=O)Nc1cccc(C2=NN(C(=O)c3ccc(F)cc3)C(c3cccs3)C2)c1 (stereo not given)	inconclusive [inhibitor, partial curve, poor fit]
Cc1ccc(OCc2nc3ccccc3n2C(C(=O)Nc2c(C)cccc2C)C2CC2)cc1 (stereo not given)	inconclusive [inhibitor, single point]
COc1ccccc1Nc1nc(N)nc(CN2CCN(Cc3ccc4c(c3)OCO4)CC2)n1	inactive
COCCN(CCOC)C(=O)c1c[nH]c2ccc(S(=O)(=O)N(C)c3ccc(F)cc3)cc2c1=O	inactive
Fc1ccc(CNCCC(Cc2ccccc2)c2ccco2)cc1 (stereo not given)	inconclusive [inhibitor, partial curve]
CSc1nnc(NC(=O)C23CC4CC(CC(C4)C2)C3)s1	inconclusive [inhibitor, single point]
CSc1ccc(CN2CCC(CO)(Cc3ccc(Cl)cc3)CC2)cc1	inconclusive [inhibitor, partial curve, poor fit]
Cc1ccc2nc(SCC(=O)c3c[nH]c4ccccc34)[nH]c2c1	inconclusive [inhibitor, single point]
CCN(C(=O)COC(=O)C1CCN(S(=O)(=O)c2ccc(C)c(C)c2)CC1)C1CCCCC1	inconclusive [inhibitor, partial curve, poor fit]
CN1CCN(S(=O)(=O)c2cccc(C(=O)NC3CCCc4ccccc43)c2)CC1 (stereo not given)	inconclusive [inhibitor, partial curve, poor fit]
Cc1sc(NC(=S)NC(=O)c2ccccc2)c(C#N)c1C	inactive
